# PubChem BioAssay AID588591 (National Center for Advancing Translational Sciences (NCATS), 2011)
# Values joined by “and” are separate entries in the source; they are usually repeats but may differ in a detail not shown here. Equal values may be shown once. Among all 390,000 compounds or so, about 4,700 (1.2%) were called active. The shares of active, inactive and inconclusive entries below differ from those in the screen. The call rests on the fitted dose curve; in most records, active means well fitted inhibition curve with a large enough effect; inconclusive means small, poorly fitted or top-dose-only effect, or another doubt; inactive means no such curve, though single readings can be large or run the other way. Where the call is inconclusive, the potency comes from a doubtful curve fit.
# Target: DNA polymerase eta (Homo sapiens) (UniProt Q9Y253)
# Assay: qHTS for Inhibitors of Polymerase Eta
# Conditions: recombinant Pol eta, fluorescent DNA replication assay; series mostly up to 114 µM
# Method in brief: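 Fluorescent replication assay: 50 nM final substrate added after a 15 min room-temperature compound preincubation with 10 nM enzyme. Signal taken at 0 min and again at 10 min.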
# Potency means the concentration at half of the fitted maximal effect; tags describe the fitted curve by direction and shape.
# Chain of UniProt Q9Y253 (Q9Y253 whole entry, looked up): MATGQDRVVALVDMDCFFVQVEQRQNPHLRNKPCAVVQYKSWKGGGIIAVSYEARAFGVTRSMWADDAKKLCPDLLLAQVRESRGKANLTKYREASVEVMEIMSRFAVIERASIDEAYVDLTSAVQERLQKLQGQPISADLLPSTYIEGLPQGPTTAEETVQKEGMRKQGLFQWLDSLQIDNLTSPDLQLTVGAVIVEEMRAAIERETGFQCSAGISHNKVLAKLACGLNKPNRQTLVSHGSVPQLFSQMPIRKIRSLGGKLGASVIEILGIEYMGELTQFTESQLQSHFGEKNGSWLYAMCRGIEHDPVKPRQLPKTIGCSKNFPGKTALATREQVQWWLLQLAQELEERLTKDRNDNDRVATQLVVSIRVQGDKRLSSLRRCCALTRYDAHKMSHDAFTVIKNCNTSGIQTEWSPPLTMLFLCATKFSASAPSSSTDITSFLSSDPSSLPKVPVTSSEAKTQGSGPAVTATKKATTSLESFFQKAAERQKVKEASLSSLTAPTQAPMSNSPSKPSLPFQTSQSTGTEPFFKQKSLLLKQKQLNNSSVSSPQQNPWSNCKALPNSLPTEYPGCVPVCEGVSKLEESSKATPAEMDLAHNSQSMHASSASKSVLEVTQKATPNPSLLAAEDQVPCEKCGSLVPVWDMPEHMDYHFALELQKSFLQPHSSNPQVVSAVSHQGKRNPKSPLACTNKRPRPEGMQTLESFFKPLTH
row,Compound,Potency
1,COc1cc(/C=C2/C(=N)N3N=C(CC(=O)N4CCOCC4)SC3=NC2=O)ccc1OCc1ccccc1F,"inconclusive: 50.1 µM [inhibitor, partial curve]"
2,Cc1n[nH]c(=S)n(NC(=O)CC(=O)Nn2c(=S)[nH]nc(C)c2=O)c1=O,inactive
3,O=C1c2cccc3cccc(c23)C(=O)N1c1ccc(O)cc1,"inconclusive: 22.4 µM [inhibitor, full curve, poor fit]"
4,CCN(C(=O)CN1CCN(c2ccccc2O)CC1)c1c(N)n(Cc2ccccc2)c(=O)[nH]c1=O,"inconclusive: 35.5 µM [inhibitor, single point]"
5,O=C(Cc1ccc(-n2cccc2)cc1)N1CCc2ccccc21,"inconclusive: 22.4 µM [inhibitor, partial curve]"
6,CCOC(=O)c1sc(NC(=O)c2cc(-c3ccccc3C)nc3ccccc23)c(C#N)c1C,"inconclusive: 31.6 µM [inhibitor, single point]"
7,C=CCc1cccc(/C=N/NC(=O)CNc2cccc3ccccc23)c1O,"inconclusive: 89.1 µM [inhibitor, partial curve, poor fit]"
8,O=C(O)CCCNc1cc(N2CCN(C(=O)c3ccco3)CC2)c2noc3c2c1C(=O)c1ccccc1-3,active: 10 µM
9,O=C(NCc1ccccc1Cl)c1ccc2oc(=O)n(Cc3ccccc3)c2c1,inactive
10,O=C(Oc1ccc(/C=N/NC(=O)c2ccccc2O)cc1)c1ccccc1,"inconclusive: 20 µM [inhibitor, single point]"
11,O=C1c2cc(O)cc(O)c2C(=O)c2c1cc(O)c([C@@H](CO)CCO)c2O,active: 44.7 µM
12,CCN(CC)S(=O)(=O)c1ccc(NC(=O)C2CC(=O)N(c3ccc4c(c3)OCCO4)C2)cc1 (configuration not stated),"inconclusive: 39.8 µM [inhibitor, partial curve, poor fit]"
13,COc1ccc(NC(=S)NNc2ccc(S(=O)(=O)Nc3ccccc3C(=O)O)cc2[N+](=O)[O-])cc1,"inconclusive: 56.2 µM [inhibitor, partial curve, poor fit]"
14,N#CC1=C2SCN(C3CCCCC3)CN2C(=O)CC1c1ccc(Cl)cc1 (configuration not stated),"inconclusive: 100 µM [inhibitor, partial curve, poor fit]"
15,Cc1ccc(CNC(=O)Cn2c(=O)n(-c3ccc(C)cc3)c(=O)c3c2c2cc(C)ccc2n3C)cc1,inactive
16,COC(=O)c1cc2occc2n1CC(=O)Nc1ccc(N(C)C)cc1,inactive
17,O=c1nc(SCc2c(F)cccc2Cl)nc(-c2ccc(Cl)cc2)[nH]1,active: 89.1 µM
18,CCCC(=O)Nc1ccc(C(=O)N/N=C/c2ccc([N+](=O)[O-])o2)cc1,"inconclusive: 22.4 µM [inhibitor, full curve, poor fit]"
19,C/C(=N\NC(=O)c1cc(Cl)ccc1O)c1ccc(Br)s1,"inconclusive: 39.8 µM [inhibitor, partial curve, poor fit]"
20,Cc1ccc(C(=O)Nc2cccc(C(F)(F)F)c2)cc1NC(=O)c1nccnc1N,"inconclusive: 15.8 µM [inhibitor, full curve, poor fit]"
21,CN(C(=O)COC(=O)c1cccnc1Nc1cccc(C(F)(F)F)c1)C1CCS(=O)(=O)C1 (configuration not stated),"inconclusive: 31.6 µM [inhibitor, partial curve, poor fit]"

row,Compound,Potency
1,CCOC(=O)/C(C#N)=C/c1cc2ccccc2nc1N1CCCCC1,"inconclusive: 89.1 µM [inhibitor, partial curve, poor fit]"
2,C/C(N)=C(/C#N)C(=O)CSc1nnc(Nc2c(C)cccc2C)s1,active: 10 µM and active: 17.8 µM
3,Cc1nc(C)c(-c2csc(N)n2)s1,"inconclusive: 89.1 µM [inhibitor, single point]"
4,CCS(=O)(=O)N1Cc2ccccc2CC1C(=O)Nc1nnc(SCc2ccc(F)cc2)s1 (configuration not stated),"inconclusive: 2.82 µM [inhibitor, full curve, poor fit]"
5,COc1ccc(-c2csc(NC(=O)c3ccc(OCC(=O)N4CCOCC4)c(OC)c3)n2)cc1OC,"inconclusive: 63.1 µM [inhibitor, partial curve, poor fit]"
6,C=CCNCC(=O)NN=C(c1ccccc1)c1ccccc1,"inconclusive: 15.8 µM [inhibitor, partial curve, poor fit]"
7,COc1ccc(NS(=O)(=O)c2ccc(C)c(C(=O)N(C)Cc3ccc(OC)cc3OC)c2)cc1,"inconclusive: 89.1 µM [inhibitor, partial curve, poor fit]"
8,Cc1ccc(S(=O)(=O)N2CCN(C(=O)c3ccc4nc[nH]c4c3)CC2)cc1,"inconclusive: 15.8 µM [inhibitor, full curve, poor fit]"
9,Cc1ccc(S(=O)(=O)N2[C@@H](c3ccc(Cl)cc3)C(C(=O)O)=CC[C@H]2c2ccc(Cl)c(Cl)c2)cc1,active: 89.1 µM
10,O=C(CCN1C(=O)c2ccccc2C1=O)NCc1ccc(F)cc1,inactive
11,CCOC(=O)C1=C(O)/C(=C/c2cn(CC(=O)NCC3CCCO3)c3ccccc23)SC1=Nc1ccc(C)cc1 (configuration not stated),active: 14.1 µM
12,O=c1c2ccccc2nc(/C=C/c2cccnc2)n1CCc1ccccc1,"inconclusive: 100 µM [inhibitor, partial curve, poor fit]"
13,Cc1ccc(CNC(=O)Cc2ccc(-n3cccc3)cc2)cc1,"inconclusive: 31.6 µM [inhibitor, partial curve]"
14,C=CC[C@@H](CC(=O)N[C@@H](CO)Cc1ccccc1)C(=O)N[C@H](COC(=O)[C@@H](CC=C)Cc1ccc(F)cc1)C(C)(C)C,"inconclusive: 79.4 µM [inhibitor, partial curve, poor fit]"
15,N#Cc1ccc(CSc2nnc(Cc3cccs3)n2Cc2ccco2)cc1,active: 22.4 µM
16,COc1ccc(NC(=O)/C(C#N)=C\c2ccc(-c3cc(C(=O)O)ccc3C)o2)cc1,active: 20 µM
17,COc1cc(/C=N\NC(=O)c2sc(N)nc2C)cc(OC)c1OC,"inconclusive: 20 µM [inhibitor, partial curve]"
18,N=C1C(c2nc3ccccc3s2)=C(O)CN1NC(=O)c1ccc([N+](=O)[O-])cc1,active: 50.1 µM
19,CCS(=O)(=O)N1Cc2ccccc2CC1C(=O)Nc1cc(S(C)(=O)=O)ccc1Cl (configuration not stated),"inconclusive: 14.1 µM [inhibitor, partial curve, poor fit]"
20,COc1ccc(OCCn2c(C3CC(=O)N(c4ccc(F)cc4)C3)nc3ccccc32)cc1 (configuration not stated),"inconclusive: 100 µM [inhibitor, single point]"
21,Cn1c(N)c(C(=O)COC(=O)/C=C/c2ccc(F)cc2)c(=O)n(C)c1=O,"inconclusive: 25.1 µM [inhibitor, partial curve, poor fit]"

row,Compound,Potency
1,C=CCn1c(SCC(=O)c2cc(C)n(Cc3cccs3)c2C)nnc1-c1ccncc1,"inconclusive: 22.4 µM [inhibitor, partial curve, poor fit]"
2,O=C(Cn1cc(S(=O)(=O)Cc2ccc(F)cc2)c2ccccc21)NCCc1ccccc1,"inconclusive: 79.4 µM [inhibitor, partial curve, poor fit]"
3,COC(=O)c1ccccc1NC(=O)c1nc2nc(C)cc(C)n2n1,"inconclusive: 28.2 µM [inhibitor, single point]"
4,O=C(NCCc1c[nH]c2ccccc12)c1ccc2nc[nH]c2c1,active: 50.1 µM
5,CCc1cc(=O)oc2cc(C)cc(OCC(=O)NC(Cc3c[nH]c4ccc(O)cc34)C(=O)O)c12 (configuration not stated),"inconclusive: 31.6 µM [inhibitor, single point]"
6,CCNS(=O)(=O)c1ccc(NC(=O)Nc2cc(C)ccc2OC)cc1,"inconclusive: 70.8 µM [inhibitor, partial curve, poor fit]"
7,Cc1ccc(Cl)c2sc(N3CCN(C(=O)C4CC4)CC3)nc12,inactive
8,C#CCOCCOCCOCCNc1nc(N2CCOCC2)nc(N2CCN(C(=O)CCCCCCCCCCNC(=O)Cn3cc(CCCCCN)nn3)CC2)n1,inactive
9,CSc1nsc(/C=C/Nc2ccc(Cl)cc2)c1C#N,"inconclusive: 12.6 µM [inhibitor, partial curve]"
10,CCOc1cc(CNc2ccc(N(C)C)cc2)cc(Br)c1OCC(=O)NC(C)(C)C,inactive
11,COC(=O)c1c(NC(=O)CN2CCN(c3ccccc3OC)CC2)c2cc(C)ccc2n1C,"inconclusive: 39.8 µM [inhibitor, single point]"
12,CCn1c(C(=O)N2CCC(C(=O)N3CCN(c4cccc(C)c4C)CC3)CC2)cc2sccc21,inactive
13,CC1CN(C(=O)CSc2nc(N)c(NC(=O)c3ccc(C(F)(F)F)cc3)c(=O)[nH]2)CC(C)O1 (configuration not stated),inactive
14,CCn1c(SC(C)C(=O)Nc2ccc(N3CCOCC3)cc2)nnc1C1CC1 (configuration not stated),"inconclusive: 89.1 µM [inhibitor, single point]"
15,CCOc1ccc(CCNC(=O)CCS(=O)(=O)c2ccc(OC)cc2)cc1OCC,"inconclusive: 25.1 µM [inhibitor, single point]"
16,Cc1cccc(-c2nc(SCCCOc3ccccc3Cl)n3[nH]c(=O)cc3n2)c1,"inconclusive: 89.1 µM [inhibitor, single point]"
17,COC(=O)c1sc(NC(=S)NNC(=O)c2c(Br)c(C)nn2C)c(C(=O)OC)c1C,active: 50.1 µM
18,OC(c1cccs1)c1nccc2ccccc12 (configuration not stated),"inconclusive: 39.8 µM [inhibitor, partial curve, poor fit]"
19,COc1cc([C@H](Cc2ccccc2)NC(C)=O)oc(=O)c1,active: 20 µM
20,CC1CC(C(F)(F)C(F)(F)F)n2nc(C(=O)O)cc2N1 (configuration not stated),"inconclusive: 35.5 µM [inhibitor, partial curve, poor fit]"
